# Source: the supplement of paper PMC11417369
# ± gives the standard deviation of the averaged measurements. Some of the results follow.
# System: PfAP2-I AP2 domain 3 (GST-tagged)
# Assay: gcPBM binding intensity (ln(normalized median fluorescence intensity)); higher = stronger DNA binding
# In short: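 An Agilent 4 × 180k array of primer-extended double-stranded 36-bp intergenic genomic probes, with negative controls, was incubated for 1 h with GST-tagged P. falciparum DNA-binding domains expressed in E. coli. Alexa488 anti-GST antibody detected bound protein, scanned at 488 nm. Binding intensity is the highest Masliner-normalised natural-log median intensity across replicate spots of either probe orientation.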
row,Sequence,gcPBM binding intensity (ln)
1,CTTAGTGTATTTGAATGTACGCATAAATATAATTAT [XGTACX_site2830],7.84 ± 0.4
2,ATTATTAAAATGATATGTACGCACATAATATACATA [XGTACX_site3236],8.09 ± 0.4
3,ATAATATTTTGAAACGGTACACTTTTAAAATACACT [XGTACX_site4423],7.88 ± 0.42
4,AAAATAAGGAAAAAAAAAAAAAAAAAAAAAAAAAAG [CACACA_negctrl_site1291],8.04 ± 0.7
5,TATTGAAACGTATAGACACACATATGATATATATAT [CACACA_site3226],9.05 ± 0.19
6,ATTTATTTATTTATATGTACTTATATATGTATTTTC [XGTACX_site6269],7.83 ± 0.65
7,TGTATTTAAAATGGTTGTACATAAATAAAAATAAAA [XGTACX_site7771],8.1 ± 0.55
8,AAAGTGTTAACCTAATCTTTAGTTTTTAAACAATAT [CACACA_negctrl_site841],7.49 ± 0.59
9,TTAATTAAATATTATACACACAAAAAAATAACTTTA [CACACA_site6197],7.58 ± 0.61
10,ATGTATTAAAAAAATTGTACTATAAAATGTAACCGC [XGTACX_site8083],7.92 ± 0.58
11,AAGGCAAGCACTTAAACATGCATATAATAATATCAT [TGCATGCA_site698],8.1 ± 0.39
12,ATAATATATATATATGCATGTACATATTTATCTTTA [TGCATGCA_site32],7.79 ± 0.56
13,AAAAAAAAAAAAAACATACACACAAATATATACATA [CACACA_site4010],8.1 ± 0.38
14,ATATTATTTTAAAGTACACACATATATTAATATATA [CACACA_site2315],8.2 ± 0.23
15,TATACATACAGACCCACACACAAAAAAAAAAAAAAA [CACACA_site6536],8.05 ± 0.54
16,ATATATATATATATATGTACATATATATATGTATAT [XGTACX_site3959],9.47 ± 0.79
17,ATATCTTATGTTATCACACACACACGCACAAAACAG [CACACA_site6800],9.08 ± 0.028
18,ATTTGTTTACCTAAAAGTACAAATTTTTTATGTATA [XGTACX_site7689],7.58 ± 0.64
19,ATTTTTTTTATTTTTTATATAATTTTTTTATATTAT [CACACA_negctrl_site1521],7.55 ± 0.51
20,TGTATTTATAAACATGCACACGTGGTTGTATTTATA [CACACA_site5762],9.85 ± 0.59
21,TATCCCTTAGAATACACACCCATATGAGTGTGAACT [CACACA_site7398],7.62 ± 0.39
22,TGTTTTGTTTTTTGGGGTACATGTTTTGTATTATAT [XGTACX_site7997],8.79 ± 0.47

row,Sequence,gcPBM binding intensity (ln)
1,AATTTACAAATATAATGTACATAATTATATATATAT [XGTACX_site278],8.87 ± 0.26
2,ATATATATATATTACACACACACAAAAAAAATAAAG [CACACA_site118],9.07 ± 0.18
3,TTTGGTTATATTTAAAAAAGACTAATGAAAATTAAA [XGTACX_negctrl_site526],7.39 ± 0.43
4,AAAAAAAAAAAAAATACACACATAAAATAAATAACA [CACACA_site439],8.03 ± 0.32
5,CATACCATACATAAAACACACAAAATTTACAGAATA [CACACA_site7451],7.88 ± 0.23
6,AATAGTAAAAATCACTGTACGTTTATTTTTAAAATG [XGTACX_site1035],7.79 ± 0.28
7,CCATATACAACCATACGTACATATATATATATATAT [XGTACX_site8193],9.33 ± 0.64
8,TATAATATTATACATAGTACACATCACACATCGCAA [XGTACX_site4650],8.05 ± 0.39
9,ATATTATTTATAGGGTGTACCTTATTATTATAAGAA [XGTACX_site7148],7.73 ± 0.28
10,TAGAAAAACATTACGTGTACCAAACATCCTAGCAAC [XGTACX_site4888],7.95 ± 0.67
11,TATATACTTTTATGTACACACCTATAATATGGGTGA [CACACA_site5044],7.68 ± 0.16
12,TTATACATAAATTTTGTACACACAAAAAAAAAAAAG [CACACA_site8374],7.95 ± 0.33
13,TTTCAAAAGTAATACTGTACTTATTTTTATGATTTA [XGTACX_site4184],7.8 ± 0.18
14,ACATATATATATATATATATATATATATTACATTTA [CACACA_negctrl_site627],8.54 ± 0.28
15,GAATTTTTTTAATGTTGTACTTTTTTTTTTTTTTCT [XGTACX_site648],7.83 ± 0.26
16,ACATATTTTATTTTTTGTACACATATATTATTTTTT [XGTACX_site6528],8.28 ± 0.42
17,TTTTTGTTAAACAGGGTGCTAATCTGAATTAATATT [GTGCAC_site9908],9.44 ± 0.14
18,CTTTATAATATTTGTTGTACACAAATATAACATATT [XGTACX_site709],8.05 ± 0.45
19,AATAATACAAAAGTTCAACAAAAAAAAAAAAAAAAT [CACACA_negctrl_site952],7.63 ± 0.4
20,AATATATTTATAAGCACACACTAATAAACACAGACA [CACACA_site4377],8.38 ± 0.26
21,GTACATAATTATTATGCACACATATTTTTATGTATT [CACACA_site8132],9.96 ± 0.36
22,AAATATATATATATATATATATATGTGTGTGTATAT [GTGCAC_negctrl_site1],8.26 ± 0.33

row,Sequence,gcPBM binding intensity (ln)
1,TGTATAATATATATATGTACTTATGTATAATATTAT [XGTACX_site4328],7.74 ± 0.49
2,TGCATAAAAGTAAAAACATGCATGCCGTGGTATCTT [TGCATGCA_site664],7.75 ± 0.92
3,AAGATATCTAAGGAAATTAAACTACCAAAATATATA [TGCATGCA_negctrl_site338],7.39 ± 0.59
4,GACATATAAATATACACACATACGTAAGTATATTAA [CACACA_site1790],7.63 ± 0.43
5,TTTTTATGGATATTTATATTATATTATGATTAAAAA [TGCATGCA_negctrl_site204],7.43 ± 0.46
6,AAATGAAAGAATTAAAGTACATTTATATAATTTTAA [XGTACX_site3540],7.47 ± 0.4
7,AAGAGAAAAACATACACACACAACAAAATATGTATA [CACACA_site2719],7.75 ± 0.38
8,TAATAATAATTATATACACACATGTATATTATATTT [CACACA_site1501],7.66 ± 0.32
9,ATTTAAATATATTATTGTACATATACCTAATAAGAA [XGTACX_site6655],7.82 ± 0.45
10,ACTCCTATATAAATGAACCATATTCATAATATATAT [CACACA_negctrl_site1636],7.64 ± 0.59
11,AAAATTAGGTATATATGTACATATATAAATATATAT [XGTACX_site3555],7.88 ± 0.42
12,TCCTTATATGGGCACACACACACAATAAAATGAAAA [CACACA_site1030],8.49 ± 0.11
13,GTTTATATTAAACAAACACACACATATATATATATA [CACACA_site8749],9.36 ± 0.39
14,TATGCTACAAGGAGAACACACAATTGCCACTTTTGG [CACACA_site2166],8 ± 0.72
15,AACCATTATTTCTCTACACACATTTATGTCATTTAC [CACACA_site1499],8.1 ± 0.84
16,TACATGCATTTCTCATGTACATAATTTTCCCATATT [XGTACX_site5158],8.16 ± 0.28
17,ATAAATTAAAGACACACACACATCTGGATACCCCTA [CACACA_site7546],8.04 ± 0.5
18,TTATATTATATATATAGTACACATGTAATATTTCAA [XGTACX_site1791],7.76 ± 0.35
19,ATCTATATAATATATACACACAAATATACAAAAAAA [CACACA_site1013],8.01 ± 0.42
20,TAAATATGCTCACAGATGCACTAACACATTTTTATA [GTGCAC_site9997],8.92 ± 0.4
21,TTTTATACATAAATGTGTACGTATATATAATGAATT [XGTACX_site2762],8.17 ± 0.17
22,TATTGTAGAGGCAAAAGTACACATTTAATAATTTCC [XGTACX_site1151],7.79 ± 0.45

row,Sequence,gcPBM binding intensity (ln)
1,ATTTAAAAATAAAGAACACACATATGTAAAATATAT [CACACA_site3754],7.83 ± 0.68
2,CAAAATATAACATCATCACACACATATACTTTATAT [CACACA_site8292],7.64 ± 0.49
3,TTATTAATATATAAATGTACATATACAATACATAAA [XGTACX_site5571],7.62 ± 0.3
4,TATTTAAGAGTATGAACACACATCATACACATATAA [CACACA_site3617],7.56 ± 0.44
5,TATGTTTGTGTATATATTTATTTTTATGTAATTATA [GTGCAC_negctrl_site219],7.75 ± 0.45
6,AATAGAACTATTACACGTACAGAACATGAATTAGTT [XGTACX_site7518],7.72 ± 0.62
7,TGTTATATATGTAATTGTACACTTATACAAAATTAT [XGTACX_site6350],7.85 ± 0.38
8,TTTTTTAATTAGTACAAACACACATATACAGACAAA [CACACA_site2564],8.38 ± 0.28
9,AAAAAAATTAGACACACACACACATATAAATATGTA [CACACA_site6618],7.57 ± 0.54
10,ATTTAGAATGCGTATACACACATATATAGATTTGCT [CACACA_site626],7.64 ± 0.64
11,TCAACACACGTGGAATGTACTTTAGTATAAGAATTC [XGTACX_site7842],7.74 ± 0.64
12,TAAATATATTTCATGACATGCAACTTGTTTTTTTGT [TGCATGCA_site456],7.63 ± 0.7
13,ATAAAAAAAAGACACACACACATATATATATATATA [CACACA_site3073],9.44 ± 0.26
14,TCTTTTACAAAAGCTATAACATTCACCACATTATAA [GTGCAC_negctrl_site133],7.68 ± 0.65
15,TATATATATATATAAACACACATAAATATAAATATA [CACACA_site1121],9.09 ± 0.3
16,ATAATATATACGTGTGTGCACATGACAAAAGCATAT,9.59 ± 0.69
17,GTTAATGTGGTTACTTGTACATATTAACGTCTTTTT [XGTACX_site2617],7.77 ± 0.42
18,AAAAAAAAAATATACACACACATATATATATATATA [CACACA_site3404],9.36 ± 0.24
19,ATATATATATTTTATGCATGTTCATTTTCTATATTT [TGCATGCA_site442],8.96 ± 0.2
20,TTTCTTACAACAACAACAAAAAAAAATAAATAAAAT [GTGCAC_negctrl_site711],7.83 ± 0.67
21,ATATTTTATATTTCTTGTACATATATTTGTAGATAT [XGTACX_site1140],7.75 ± 0.47
22,TATTATTTTTTTATTCTATTAAAAAGAAAAAAATGA [CACACA_negctrl_site407],7.5 ± 0.11
